Test results as given in the supplement of paper PMC12217912.
The list shows a part of the results. Sequences were assembled here from the parent chain. Values near 0.05 are background.

B1: TEV protease; numbered along this chain (parent)
chain: MGESLFKGPRDYNPISSSICHLTNESDGHTTSLYGIGFGPFIITNKHLFRRNNGTLVVQSLHGVFKVKDTTTLQQHLVDGRDMIIIRMPKDFPPFPQKLKFREPQREERICLVTTNFQTKSMSSMVSDTSCTFPSGDGIFWKHWIQTKDGQCGSPLVSTRDGFIVGIHSASNFTNTNNYFTSVPKNFMELLTNQEAQQWVSGWRLNADSVLWGGHKVFMVKPEEPFQPVKEATQL

Variants of: B1
Experiment: raw area under fraction-flipped curve 0-4 h after induction (AUC4h, not background-subtracted), DNA-recorder readout of cleavage of the substrate (dimensionless); higher = more cleavage of the substrate by the protease variant
Settings: temperature: 34 °C; time window: 0-4 h after rhamnose induction
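Note: Bxb1 expression induced with 0.2% (w/v) L-rhamnose at OD600 near 0.5, cultures sampled hourly, flipped fraction per protease–substrate barcode pair counted by paired-end Illumina sequencing.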

T119D
area with substrate ECLYFQS: 0.107
area with substrate EELYFQS: 0.101
area with substrate ERLYFQS: 0.0965
area with substrate ESLYFQS: 0.102
area with substrate EVLYFQS: 0.154

T119Y
area with substrate ECLYFQS: 0.0858
area with substrate EELYFQS: 0.151
area with substrate EFLYFQS: 0.097
area with substrate EILYFQS: 0.0845
area with substrate EKLYFQS: 0.125
area with substrate EMLYFQS: 0.111
area with substrate EPLYFQS: 0.12
area with substrate EQLYFQS: 0.119
area with substrate ERLYFQS: 0.0773
area with substrate ESLYFQS: 0.112
area with substrate EVLYFQS: 0.132
area with substrate EWLYFQS: 0.0932

I145M
area with substrate ECLYFQS: 0.0812
area with substrate EFLYFQS: 0.0789
area with substrate EHLYFQS: 0.0686
area with substrate EILYFQS: 0.0788
area with substrate EKLYFQS: 0.0893
area with substrate ELLYFQS: 0.0956
area with substrate EMLYFQS: 0.0802
area with substrate ERLYFQS: 0.0719
area with substrate ESLYFQS: 0.0726
area with substrate ETLYFQS: 0.0883
area with substrate EVLYFQS: 0.0716

I145L
area with substrate ECLYFQS: 0.0982
area with substrate EDLYFQS: 0.106
area with substrate ESLYFQS: 0.0758
area with substrate ETLYFQS: 0.119
area with substrate EYLYFQS: 0.08

T159S
area with substrate ECLYFQS: 0.119
area with substrate EELYFQS: 0.115
area with substrate EHLYFQS: 0.0965
area with substrate EILYFQS: 0.0894
area with substrate EPLYFQS: 0.097
area with substrate ERLYFQS: 0.0862
area with substrate ESLYFQS: 0.0857
area with substrate ETLYFQS: 0.118
area with substrate EWLYFQS: 0.0842
area with substrate EYLYFQS: 0.108

T159D
area with substrate ECLYFQS: 0.0986
area with substrate EELYFQS: 0.111
area with substrate EILYFQS: 0.068
area with substrate ELLYFQS: 0.0882
area with substrate EMLYFQS: 0.112
area with substrate ERLYFQS: 0.112
area with substrate ESLYFQS: 0.127
area with substrate ETLYFQS: 0.0881
area with substrate EVLYFQS: 0.0836

F140N
area with substrate ECLYFQS: 0.0619
area with substrate EDLYFQS: 0.0543
area with substrate EELYFQS: 0.0561
area with substrate EFLYFQS: 0.0677
area with substrate EGLYFQS: 0.0651
area with substrate EILYFQS: 0.0517
area with substrate EKLYFQS: 0.07
area with substrate ELLYFQS: 0.0662
area with substrate EMLYFQS: 0.0452
area with substrate EQLYFQS: 0.0564
area with substrate ERLYFQS: 0.0786
area with substrate ESLYFQS: 0.0628
area with substrate ETLYFQS: 0.0519
area with substrate EVLYFQS: 0.0603
area with substrate EYLYFQS: 0.0541

F140Q
area with substrate ECLYFQS: 0.0611
area with substrate EDLYFQS: 0.0584
area with substrate EKLYFQS: 0.0755
area with substrate ELLYFQS: 0.065
area with substrate ESLYFQS: 0.0623

F140Y
area with substrate ECLYFQS: 0.0893
area with substrate EDLYFQS: 0.116
area with substrate EILYFQS: 0.0749
area with substrate EKLYFQS: 0.0902
area with substrate EMLYFQS: 0.104
area with substrate EPLYFQS: 0.115
area with substrate EQLYFQS: 0.0925
area with substrate EVLYFQS: 0.0623
area with substrate EWLYFQS: 0.0977

H143F
area with substrate ECLYFQS: 0.0928
area with substrate EDLYFQS: 0.137
area with substrate EGLYFQS: 0.0782
area with substrate EHLYFQS: 0.116
area with substrate EILYFQS: 0.0886
area with substrate EPLYFQS: 0.119
area with substrate EQLYFQS: 0.135
area with substrate ERLYFQS: 0.106
area with substrate ESLYFQS: 0.111
area with substrate EVLYFQS: 0.094

R160L
area with substrate ECLYFQS: 0.079
area with substrate EFLYFQS: 0.104
area with substrate EGLYFQS: 0.0887
area with substrate EMLYFQS: 0.092
area with substrate EYLYFQS: 0.0585

T129G
area with substrate ECLYFQS: 0.108
area with substrate EDLYFQS: 0.113
area with substrate EKLYFQS: 0.0917
area with substrate ELLYFQS: 0.0994
area with substrate ERLYFQS: 0.0875
area with substrate EVLYFQS: 0.0837
area with substrate EYLYFQS: 0.0835

S182Y
area with substrate ECLYFQS: 0.041
area with substrate EELYFQS: 0.0629
area with substrate EHLYFQS: 0.0581
area with substrate EILYFQS: 0.0535
area with substrate EKLYFQS: 0.0619
area with substrate EMLYFQS: 0.048
area with substrate EPLYFQS: 0.0696
area with substrate EQLYFQS: 0.052
area with substrate ESLYFQS: 0.0583
area with substrate EWLYFQS: 0.073

S182P
area with substrate ECLYFQS: 0.11
area with substrate EDLYFQS: 0.112
area with substrate EGLYFQS: 0.139
area with substrate EHLYFQS: 0.138
area with substrate ELLYFQS: 0.0795
area with substrate EQLYFQS: 0.121
area with substrate ERLYFQS: 0.132
area with substrate ESLYFQS: 0.132

K142A
area with substrate ECLYFQS: 0.114
area with substrate EELYFQS: 0.0807
area with substrate EILYFQS: 0.0926
area with substrate EKLYFQS: 0.106
area with substrate EQLYFQS: 0.104
area with substrate ERLYFQS: 0.114
area with substrate ESLYFQS: 0.128
area with substrate EWLYFQS: 0.093
area with substrate EYLYFQS: 0.077

S135C
area with substrate ECLYFQS: 0.0932
area with substrate EDLYFQS: 0.0961
area with substrate EELYFQS: 0.0846
area with substrate EFLYFQS: 0.0733
area with substrate EGLYFQS: 0.0477
area with substrate EHLYFQS: 0.0663
area with substrate EILYFQS: 0.0541
area with substrate EKLYFQS: 0.081
area with substrate ELLYFQS: 0.0846
area with substrate EMLYFQS: 0.0859
area with substrate EQLYFQS: 0.0858
area with substrate ERLYFQS: 0.0499
area with substrate ESLYFQS: 0.0737
area with substrate EWLYFQS: 0.0617
area with substrate EYLYFQS: 0.0954

F133I
area with substrate ECLYFQS: 0.128
area with substrate EELYFQS: 0.163
area with substrate EGLYFQS: 0.103
area with substrate EILYFQS: 0.0862
area with substrate EPLYFQS: 0.133

N186G
area with substrate ECLYFQS: 0.13
area with substrate EDLYFQS: 0.168
area with substrate EPLYFQS: 0.104
area with substrate ESLYFQS: 0.108
area with substrate EYLYFQS: 0.156

N172T
area with substrate ECLYFQS: 0.0616
area with substrate EELYFQS: 0.0716
area with substrate EGLYFQS: 0.0597
area with substrate EMLYFQS: 0.0939
area with substrate EPLYFQS: 0.0771
area with substrate ERLYFQS: 0.0702
area with substrate ESLYFQS: 0.0482
area with substrate ETLYFQS: 0.078
area with substrate EYLYFQS: 0.0658
